In all, about 45,000 compounds went through this assay and about 65 (0.1%) were called active. The call rests on the fitted dose curve; in most records, active means well fitted activation curve with a large enough effect; inconclusive means small, poorly fitted or top-dose-only effect; inactive means no such curve, though single readings can be large or run the other way. The list shows a part of the results.
molecular target: Galactocerebrosidase (Homo sapiens) (UniProt P54803); assay: A Novel Cell-Based Assay to Identify Small Molecules for B -Galactocerebrosidase; conditions: 145M-Twi-hGALC-G270D cells (Twitcher mouse brain line with human GALC G270D), HMU-beta-Gal fluorescence, 48 h; series mostly up to 57.5 µM; activation: at the top concentration; further: 0% is about no effect; nearly all actives have a fitted effect of over 65% in size
Sequence of UniProt P54803 (P54803 whole entry, looked up): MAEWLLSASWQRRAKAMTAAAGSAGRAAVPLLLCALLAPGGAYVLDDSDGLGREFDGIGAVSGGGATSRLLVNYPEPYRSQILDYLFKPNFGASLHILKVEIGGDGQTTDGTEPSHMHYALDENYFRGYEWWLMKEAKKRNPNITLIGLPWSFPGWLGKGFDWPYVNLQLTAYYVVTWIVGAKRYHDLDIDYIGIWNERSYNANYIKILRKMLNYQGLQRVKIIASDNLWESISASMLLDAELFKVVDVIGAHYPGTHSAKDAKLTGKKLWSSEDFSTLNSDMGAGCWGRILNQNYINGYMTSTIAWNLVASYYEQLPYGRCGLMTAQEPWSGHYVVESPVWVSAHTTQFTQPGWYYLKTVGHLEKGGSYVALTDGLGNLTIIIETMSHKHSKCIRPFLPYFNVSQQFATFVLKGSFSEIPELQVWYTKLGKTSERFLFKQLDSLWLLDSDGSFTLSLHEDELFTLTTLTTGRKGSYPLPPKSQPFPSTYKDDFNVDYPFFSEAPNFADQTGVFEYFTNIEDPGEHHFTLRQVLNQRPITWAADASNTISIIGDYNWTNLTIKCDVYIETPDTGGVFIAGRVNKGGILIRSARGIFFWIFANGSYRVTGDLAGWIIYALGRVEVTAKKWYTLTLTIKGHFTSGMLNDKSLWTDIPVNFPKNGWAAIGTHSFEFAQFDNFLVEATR
Method in brief: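 Fluorogenic HMU-b-Gal hydrolysis (0.1 mM final, pH 5.2 citrate-phosphate with 1 mg/mL sodium taurocholate; carbonate stop buffer) measures mutant GALC activity after compound treatment of live 145M-Twi Twitcher brain cells stably carrying human GALC-G270D, with wild-type GALC line alongside; activation sought.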

activation, inactive:
O=C(Cn1cc(SCc2cccc(Cl)c2)c2ccccc21)N1CCCCC1 -11.9%, CCOc1ccc(NC(=O)CC2C(=O)N(c3ccccc3)C(=O)N2CCc2sccc2C)cc1 (stereo unspecified) -14.8%, CCOc1nc(-c2ccccc2)ccc1-c1noc(-c2ccc(C)cc2)n1 -16.3%, Cc1ccccc1CSc1nc2c(sc3ccccc32)c(=O)n1CCCC(=O)NCCCOC(C)C -12.5%, COC(=O)c1cc(NC(=O)CC2C(=O)OCCN2Cc2ccccc2)cc(C(=O)OC)c1 (stereo unspecified) -9.94%, COc1cccc(OCC(=O)NC2CC(=O)N(c3cccc(OC)c3)C2)c1 (stereo unspecified) -14%, CC(C)(C)OC(=O)N1CCC(c2c(C(=O)N3CCN(C(=O)c4ccco4)CC3)cnn2-c2cccc(Cl)c2)CC1 -14.5%, CC(=O)c1ccc(NC(=O)c2nc(-c3ccc(Cl)cc3)n3c2CCCCC3)cc1 -13.7%, COCc1cc(C)nc2c1C(=O)NC(c1ccc(NC(C)=O)cc1)N2Cc1ccccc1 (stereo unspecified) -25.5%, Cc1cccc(OCC(=O)N2CCC(c3nc4ccccc4o3)CC2)c1C -14.6%, Cc1cc(C)c2c(=O)cc(C(=O)Nc3sc4c(c3C(=O)NCc3ccco3)CCCC4)oc2c1 2.64%, CS(=O)(=O)CC[C@@H](C(=O)NCCc1ccccc1)N1Cc2ccccc2C1=O -1.66%, CN(c1nnc(NC(=O)Nc2ccccc2C(F)(F)F)s1)C1CCCCC1 -24.3%, COc1ccc(NC(=O)Cn2c(=O)c3ccccc3n3nncc23)cc1Cl -17.9%, NC(=O)N1c2ccccc2CC(=O)c2ccccc21 -19.5%, O=C(C1COc2ccccc2O1)N(Cc1cccnc1)c1nc2c(F)cccc2s1 (stereo unspecified) 0.764%, CCOC(=O)c1c(NC(=O)c2cc(-c3cccc(Cl)c3)on2)sc(C(C)=O)c1C -10.3%, CC1CCN(S(=O)(=O)c2cc(C(=O)N3CCN(c4cccc(Cl)c4)CC3)n(C)c2)CC1 1.86%, COc1ccc2c(c1)-c1nc(NC(=O)c3cccc(Br)c3)sc1CC2 -2.22%, Cc1ccc(NC(=O)CN2C(=O)c3cccnc3Sc3ccccc32)c(Br)c1 0.208%, Cc1ccc(Nc2c3c(nc4nncn24)CCC3)c(C)c1 -8.73%, Cc1ccc(NC(=O)Cn2nnc(-c3ccccc3)n2)c(C)c1 9.26%, COc1ccccc1C1C(C(=O)N2CCCCC2)=C(C)Nc2nc3ccccc3n21 (stereo unspecified) -8.83%, CCOC(=O)c1nnn(C(CC)C(=O)Nc2ccc(F)cc2)c1C(=O)OCC (stereo unspecified) -21.8%, CCOc1ccc(S(=O)(=O)c2cn(CC)c3ccc(F)cc3c2=O)cc1 -15.2%, COc1ccc(N(CC(=O)N2CCc3ccccc3C2)S(=O)(=O)c2ccccc2)cc1 -18.3%, CCc1cccc(NC(=O)CSc2nnc(-c3cc4occc4n3C)n2-c2ccccc2C)c1 -10.3%, COc1cccc(-n2c(=O)c3sc4ccccc4c3n(Cc3c(F)cccc3Cl)c2=O)c1 -5.86%, Cc1ccc(-n2nc(CO)c(C(=O)NCCC(C)C)n2)cc1C -10.6%, O=c1n(Cc2ccc(F)cc2)c2ccccc2c2nc(-c3ccccc3)nn12 -1.47%, Cc1ccc(CNC(=O)c2ccc(Cn3c(SCc4ccc(F)cc4)nc4cccnc43)cc2)o1 -8.97%, CSc1ccc(CCNC(=O)Cn2c(C)c3cnn(-c4ccccc4)c(=O)c3c2C)cc1 -17.5%, CCCN(C(=O)CCc1nc(-c2ccc(C)cc2)no1)c1ccc(OCC)cc1 0.995%, Cc1ccc(N2C(=O)C(CC(=O)Nc3cccc(F)c3)N(CCc3ccccc3F)C2=O)cc1 (stereo unspecified) -33.8%, CCOC(=O)c1c(C)oc2nc(C)nc(NCC3CCN(Cc4cc(C)ccc4C)CC3)c12 -14.4%, Cc1ccc(Sc2ccc(N3CCCC(C(=O)Nc4ccc(F)cc4)C3)nn2)cc1 (stereo unspecified) 1.99%, O=C(Cn1nc(N2CCN(c3ccccc3)CC2)ccc1=O)NCc1ccccc1F 0.554%, CCN(CC)C(=O)CSc1nc2cc3c(cc2c(=O)n1CCCC(=O)NCc1ccc2c(c1)OCO2)OCO3 1.5%, COc1ccc(-c2cn3c(n2)sc2cc(C(=O)NCCCc4ccccc4)ccc23)cc1 -12.1%, COc1cccc2c1cc1c(=O)n(CC(=O)N3CCN(c4ccc(F)cc4)CC3)nc(C)n12 -4%, CCCS(=O)(=O)c1nc(S(=O)(=O)c2ccc(C)cc2)c(NCCCOC(C)C)s1 3.41%, COc1ccc2nc(SCC(O)c3cccc(Br)c3)[nH]c2c1 (stereo unspecified) -9.66%, Cn1c(=O)c2c(nc(NCCc3ccccc3)n2Cc2ccccc2Br)n(C)c1=O -4.33%, CCOc1ccc(C(=O)N(Cc2nc(-c3cccc(C)c3)no2)C(C)C)cc1 -37.8%, Cc1cccc(C(=O)Nc2ccccc2OCc2cc(=O)n3ccccc3n2)c1 10%, CCOc1ccc(NC(=O)c2cn(C3CCCCC3)c(=O)c3c2c2ccccc2n3C)cc1 -23.7%, Cc1ccc(-c2nnc(SCC(=O)NC(C)(C)C)nc2-c2ccc(C)cc2)cc1 -4.52%, CC(=O)OCC(=O)[C@@]1(O)[C@H](OC(C)=O)C[C@H]2[C@@H]3CCC4=CC(=O)C=C[C@]4(C)[C@@]3(F)[C@@H](O)C[C@@]21C -16.8%, CCOc1ccc(CNC(=O)CCCn2c(=O)c3cccn3c3ccccc32)cc1 -18.8%, COc1ccc(-c2nc(CN3CCC(C(=O)NCc4ccc(C)cc4)CC3)c(C)o2)cc1OC -4.87%, CC(=O)N1CCCc2cc(S(=O)(=O)N3CCC(C(=O)Nc4c(C)cccc4C)CC3)ccc21 -14.8%, COc1ccc(CCNC(=O)C(=O)NCC(c2cccs2)S(=O)(=O)c2cccs2)cc1 (stereo unspecified) -8.18%, COc1ccccc1CNc1ncnc2onc(-c3ccc(F)cc3)c12 -6.27%, COc1ccc(C(=O)n2nc(-c3cccnc3)nc2NCc2ccccc2)cc1OC -4.87%, CCOc1ccccc1Nc1nc2ccccc2nc1NS(=O)(=O)c1ccc(Cl)cc1 -25%, Cc1cc(F)ccc1NC(=O)Cn1nc(N2CCN(c3ccccc3)CC2)ccc1=O -4.78%, Cc1ccc(-c2noc(-c3cccnc3NCc3ccco3)n2)cc1 -2.77%, COc1ccc(CNC(=O)CN2C(=O)COc3ccc(S(=O)(=O)N4CCCCC4)cc32)cc1 -9.58%, COc1ccc2c(CNC3CCCCCC3)c(C(=O)O)n(Cc3ccc(C)cc3)c2c1 3.12%, CCc1nnc(SCc2cccc(Cl)c2)c2cc3sccc3n12 -30.8%, COc1ccc(-c2cc(OC(=O)c3ccccc3Cl)c3c(C)oc(C)c3c(=O)c2)cc1OC -19.9%

From PubChem BioAssay AID1159614 (National Center for Advancing Translational Sciences (NCATS), 2016)
